Some entries of the source have several records that differ or are many. Only these are listed. An entry can have further records. Values given together are repeats in other runs, samples, wells, individuals or studies. Additions like (4×) stand for listed records that agree. Marks such as [2022-09] give the month of the run.
Tested on: NCI-H1417 complex spheroids, growth % test/control
Experiment: Anticancer human tumor NCI-H1417 cell line growth inhibition [Asc];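 note: spheroids exposed to compounds for 7 days; 100% = DMSO vehicle control wells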
Conditions: stronger effect = lower value
Experimental: Multicellular complex tumor spheroid response to apoptosis pathway targeting inhibitors Alrizomadlin, Pelcitoclax, and Dasminapant in combination with a variety of drugs and investigational agents in selected tumor cell lines
The MDM2 inhibitor alrizomadlin, the Bcl-2/Bcl-xL inhibitor pelcitoclax, and the IAPs inhibitor dasminapant were evaluated both individually and in combination with standard of care and investigational anticancer small molecules within a complex spheroid model of solid tumors. . Complex spheroids include a stromal component modeled by human endothelial cells (HUVEC) and fibroblasts modeled by human mesenchymal stem cells (MSCs). The concentration ranges selected for each drug and investigational agent were based upon clinically achievable concentrations if the clinical Cmax of the agent was known.
Compounds. […] If the clinical Cmax for an agent had not been determined, the highest concentration tested was 10 microM. […]

SMILES | viability, T/C (compound alone 0.949 µM) | viability, T/C (compound alone 0.1 µM)
CCN1C(C(=O)NC23CCC(C(=O)O)(CC2)CC3)C(c2cccc(Cl)c2F)C2(C(=O)Nc3cc(Cl)ccc32)C12CCCCC2 (configuration not stated) | 91, 95.5, 79.4, 98.6, 96.9, 86.7, 95.2, 88.4, 101 (2×), 96.3, 96.4, 88.2, 100, 117% | 
CNC(C)C(=O)NC1CN(S(=O)(=O)c2cccc(S(=O)(=O)N3CCC4CCC(C(=O)NC(c5ccccc5)c5ccccc5)N4C(=O)C(NC(=O)C(C)NC)C3)c2)CCC2CCC(C(=O)NC(c3ccccc3)c3ccccc3)N2C1=O (configuration not stated) |  | 109, 104, 86, 98.7, 99.2, 94.9, 91, 94.2, 99.5, 102, 82.6, 103, 92.6% [2022-10] and 99.2% [2022-11]

Source: PubChem BioAssay AID1963440 (Molecular Pharmacology Branch, DTP, NCI, 2024)
